“And” between values parts separate entries of the source, which are not always exact repeats. Equal values may be shown once. Hit rate of the full screen: of about 340,000 compounds, about 12,000 (3.5%) were called active. Inconclusive means that the source gave no clear call. Such entries were picked first, then a sample of the others. The call rests on the fitted dose curve; in most records, active means well fitted inhibition curve with a large enough effect; inconclusive means small, poorly fitted or top-dose-only effect, or another doubt; inactive means no such curve, though single readings can be large or run the other way. Potencies beside an inconclusive call are fits to weak or partial responses and may not hold up.
Assay: qHTS Assay for Inhibitors of Hepatitis C Virus (HCV)
Conditions: Huh7.5.1 HCVcc-Cre (HCVcc is cell-culture hepatitis C virus) infection, luciferase reporter, 44 h; activity change, negative = inhibition: at 41.8 µM (top of the series) unless noted
In short: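 A cell-based infection assay in which seeded cells (1,000 per well) receive test compound after 4 h, are inoculated with HCVcc-Cre at approximately 0.5 moi, and are incubated 44 h before luminescence detection.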
On the % scale 0 is the no-effect control and ±100 the full control effect; potency means the concentration at half of the fitted maximal effect; tags describe the fitted curve by direction and shape.

Row | Compound | activity change, negative = inhibition | Potency
1 | C#CCOCCOCCOCCNc1nc(N2CCN(C(=O)[C@H]([C@@H](C)CC)n3cc([C@@H](N)CO)nn3)CC2)nc(N2CCN(C(=O)[C@H](CCCCN)n3cc([C@@H](N)CC(C)C)nn3)CC2)n1 | inactive: 9.79% | 
2 | CCN(CC(=O)Nc1ccc2c(c1)CCC2)Cc1nc2ccccc2c(=O)[nH]1 |  | inconclusive: 22.4 µM [inhibitor, single point]
3 | Nc1nnc(SCc2ccc(F)cc2Cl)s1 |  | inconclusive: 7.08 µM [inhibitor, full curve, poor fit]
4 | Cc1ccccc1C(=O)N1CCC(n2nccc2NC(=O)CCOc2ccccc2)CC1 | inactive: 14.6% | 
5 | COc1ccc(-c2nnn(CC(=O)N(Cc3ccc(F)cc3)C(C(=O)NC3CCCC3)c3ccc(F)cc3)n2)cc1 (stereo not given) |  | inconclusive: 35.5 µM [inhibitor, single point]
6 | COc1nc(C)ccc1-c1noc(-c2ccco2)n1 |  | inconclusive: 20 µM [inhibitor, single point]
7 | Cc1ccc(/C=C/C(=O)c2ccccc(=O)c2O)c(C)c1 |  | inconclusive: 3.98 µM [inhibitor, partial curve]
8 | COc1cc(CN2CCC(C(=O)NC3CCCC3)CC2)cc(OC)c1O | inactive: 5.44% | 
9 | COc1ccc(OC)c(N(CC(=O)NCCc2ccc(OC)c(OC)c2)S(=O)(=O)c2ccccc2)c1 | inactive: -6.25% | 
10 | CCCNC(=O)c1ccc(-c2nc3ccccc3s2)s1 |  | inconclusive: 10 µM [inhibitor, partial curve]
11 | C=C(C)C(=O)Nc1cccc(C2=NOC3(C2)C[C@H](C(N)=O)N(C(=O)C(c2ccccc2)c2ccccc2)C3)c1 (stereo not given in full) |  | inconclusive: 31.6 µM [inhibitor, single point]
12 | O=C(NCc1nnnn1-c1ccc(F)c(F)c1)C(=O)c1c[nH]c2ccccc12 | inactive: 13.7% | 
13 | COc1ccc(NC(=O)CSc2nnc(-c3ccccc3C)n2N)cc1 | inactive: 14% | 
14 | Cc1ccc(NC(=O)c2ccc(Br)o2)cc1S(=O)(=O)N(C)C |  | inconclusive: 31.6 µM [inhibitor, single point]
15 | CCC(C)C(=O)N1c2ccccc2C(=C2SC(C(=O)OC)=C(C(=O)OC)S2)C(=S)C1(C)C (stereo not given) |  | inconclusive: 31.6 µM [inhibitor, single point]
16 | O=C(CCCN=C1NS(=O)(=O)c2ccccc21)OCc1ccccc1 |  | inconclusive: 3.55 µM [inhibitor, single point]
17 | C/C(N)=C(/C#N)C(=O)CSc1nc2cc(Cl)ccc2s1 |  | active: 8.91 µM
18 | COc1cc(NC(=O)Nc2cccc([N+](=O)[O-])c2)cc(OC)c1 | inactive: -7.97% | 
19 | CN(c1ccc(C(=O)Nc2cccnc2)cc1)S(=O)(=O)c1ccccc1 |  | inconclusive: 31.6 µM [inhibitor, single point]
20 | COCCNC(=O)C1CCCN(S(=O)(=O)c2cccc3nsnc23)C1 (stereo not given) | inactive: 1.38% | 
21 | c1cnc(Sc2ccc3nnnn3n2)nc1 | inactive: 10.9% | 
22 | O=C(CCSC1=NCCCN1)c1ccc(F)cc1 | inactive: -21% | 
23 | CC(=O)Nc1ccccc1C(=O)C(=O)Nc1ccc(C)c(F)c1 | inactive: -15.7% | 

Row | Compound | activity change, negative = inhibition | Potency
24 | Cn1c(SCc2ccc(Br)cc2)nc2c(c1=O)SCC2 |  | inconclusive: 31.6 µM [inhibitor, partial curve, poor fit]
25 | CC(=O)Nc1cc(F)c2c(c1F)Cc1cc(F)ccc1-2 |  | inconclusive: 20 µM [inhibitor, single point]
26 | O=S(=O)(Nc1ccccc1O)c1ccc(Cl)nc1 | inactive: 10.8% | 
27 | Cc1ccc(S(=O)(=O)N2CCC(C(=O)NC3CCCCCC3)CC2)cc1 | inactive: -7.15% | 
28 | NC(=O)c1ncn([C@@H]2O[C@H](CNC(=O)[C@H](N)CSCc3ccccc3)[C@@H](O)[C@H]2O)n1 | inactive: 4.84% | 
29 | Cc1c(NC=C(C#N)C#N)c(=O)n(-c2ccccc2)n1C | inactive: 17.5% | 
30 | COc1ccc(-c2cn(Cc3ccc(C(N)=O)cc3)c(-c3ccncc3)n2)cc1 | inactive: 0.984% | 
31 | COc1cccc(Oc2ccc(N/C=C/C(=O)C(C)(C)C)cc2)c1 | inactive: 3.43% | 
32 | Cc1cccc2cc(CN(Cc3ccco3)C(c3nnnn3CCc3ccccc3)C(C)C)c(=O)[nH]c12 (stereo not given) |  | inconclusive: 15.8 µM [inhibitor, single point]
33 | CCCC[C@@H]1C=C(C(=O)O)[C@H](c2ccc3c(c2)OCO3)N1S(=O)(=O)c1ccc(C)cc1 |  | inconclusive: 11.2 µM [inhibitor, single point]
34 | CCN1CCN(c2nc3sc4c(c3c(=O)n2-c2ccc(OC)cc2)CCCCC4)CC1 |  | inconclusive: 31.6 µM [inhibitor, single point]
35 | O=C(NCc1ccc(C(F)(F)F)cc1)C12CN(Cc3ccccc3)CC1C(c1cccc([N+](=O)[O-])c1)=NO2 (stereo not given) |  | inconclusive: 3.16 µM [inhibitor, full curve]
36 | COc1ccc(N=C2S/C(=C\c3cc(C)n(C)c3C)C(=O)N2CC(C)C)cc1 |  | active: 10 µM
37 | Cc1ccc(S(=O)(=O)Cn2nnnc2C(c2ccccc2)N2CCN(c3ncccn3)CC2)cc1 (stereo not given) | inactive: 5.81% | 
38 | CN(C)N1C(N)=C(C#N)C(c2ccc3c(c2)OCO3)C2=C1CCCC2=O (stereo not given) | inactive: 3.28% | 
39 | CCc1c(C)nc2ncnn2c1N1CCC(C(=O)NCc2cccc(OC)c2)CC1 |  | inconclusive: 31.6 µM [inhibitor, single point] and inconclusive: 15.8 µM [inhibitor, partial curve]
40 | COc1ccc(C(CNC(=O)c2cccc(S(=O)(=O)Nc3ccc(C)cc3)c2)N2CCOCC2)cc1 (stereo not given) |  | inconclusive: 8.91 µM [inhibitor, partial curve, poor fit]
41 | O=C(Cn1nnc(-c2ccccc2NC(=O)c2cccs2)n1)Nc1ccccc1 |  | inconclusive: 10 µM [inhibitor, partial curve]
42 | CCOc1ccc(NC(=O)CN(C)C(=O)c2cc3c(s2)CCCCC3)cc1OCC |  | inconclusive: 2.24 µM [inhibitor, single point]
43 | CCN(C(=O)COC(=O)c1ccccc1O)c1cccc2ccccc12 |  | inconclusive: 31.6 µM [inhibitor, single point]
44 | COc1ccc2nc(NC(=O)CSc3n[nH]c(N)n3)sc2c1 |  | inconclusive: 31.6 µM [inhibitor, single point]
45 | CCC(=O)c1cc2c(C)cc(=O)oc2c(C)c1OC(=O)C(C)C |  | inconclusive: 11.2 µM [inhibitor, single point]
